{
  "source": "patent US20220304979A1",
  "about": "“METHODS OF REDUCING DISEASE FLARES” (Chinook Therapeutics, Inc., priority 2019, published 2022)",
  "test_system": "ET-1 stimulated HRMC",
  "experiment": "hallmark gene set enrichment in ET-1 stimulated HRMC treated with atrasentan",
  "details": "atrasentan 1 nM and 25 nM",
  "data": [
    {"smiles": "CCCCN(CCCC)C(=O)CN1C[C@H](c2ccc3c(c2)OCO3)[C@@H](C(=O)O)[C@@H]1c1ccc(OC)cc1", "note": "[atrasentan, (2R,3R,4S)-4-(1,3-benzodioxol-5-yl)-1-[2-(dibutylamino)-2-oxoethyl]-2-(4-methoxyphenyl)pyrrolidine-3-carboxylic acid]", "values": [
      {"measurement": "enrichment of hallmark gene sets (TNFα signaling via NF-κB, mitotic spindle, inflammatory response, EMT, IL6-JAK-STAT3 etc.)", "value": "negative enrichment scores"}
    ]}
  ]
}
